Results are given in words; binding and its absence hold for the method and conditions named. Binding seen in cells or lysates may run through a third protein. Some binding calls cover weakened binding; strength is not graded here. For part of these data: Where a sequence is shown, tags or fusion partners need not be part of it.

Protein sequences, listed by entry. Tags and fused reporters are not part of them. Residues count along the entry.
UniProt Q9BXM7, residues 78-581: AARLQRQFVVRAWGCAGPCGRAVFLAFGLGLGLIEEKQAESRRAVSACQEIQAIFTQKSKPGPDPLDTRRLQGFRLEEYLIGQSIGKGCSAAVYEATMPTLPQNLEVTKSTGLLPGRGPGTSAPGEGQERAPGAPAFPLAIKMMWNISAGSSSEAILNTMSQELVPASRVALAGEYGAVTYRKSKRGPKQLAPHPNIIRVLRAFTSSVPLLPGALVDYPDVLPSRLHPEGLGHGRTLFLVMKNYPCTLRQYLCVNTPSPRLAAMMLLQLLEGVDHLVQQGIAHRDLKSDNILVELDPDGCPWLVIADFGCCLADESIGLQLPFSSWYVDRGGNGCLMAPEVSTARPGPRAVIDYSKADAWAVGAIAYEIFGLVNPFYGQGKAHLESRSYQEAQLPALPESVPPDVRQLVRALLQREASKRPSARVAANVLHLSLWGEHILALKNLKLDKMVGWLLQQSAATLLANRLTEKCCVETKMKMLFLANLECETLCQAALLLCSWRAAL
UniProt O60260: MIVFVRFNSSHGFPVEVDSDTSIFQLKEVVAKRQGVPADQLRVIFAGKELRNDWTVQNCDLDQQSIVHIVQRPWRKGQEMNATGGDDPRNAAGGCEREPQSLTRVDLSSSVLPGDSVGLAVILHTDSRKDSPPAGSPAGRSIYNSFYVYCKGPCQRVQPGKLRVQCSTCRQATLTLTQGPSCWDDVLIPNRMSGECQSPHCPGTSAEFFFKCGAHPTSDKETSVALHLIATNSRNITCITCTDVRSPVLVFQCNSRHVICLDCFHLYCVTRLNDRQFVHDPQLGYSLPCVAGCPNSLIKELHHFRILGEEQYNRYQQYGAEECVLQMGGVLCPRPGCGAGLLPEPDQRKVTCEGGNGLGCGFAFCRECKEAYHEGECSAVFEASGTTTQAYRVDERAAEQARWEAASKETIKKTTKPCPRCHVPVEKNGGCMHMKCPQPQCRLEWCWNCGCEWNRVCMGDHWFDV

One test deals with T1, Flag-MDA5 (UniProt Q9BYX4).
T1 sequence: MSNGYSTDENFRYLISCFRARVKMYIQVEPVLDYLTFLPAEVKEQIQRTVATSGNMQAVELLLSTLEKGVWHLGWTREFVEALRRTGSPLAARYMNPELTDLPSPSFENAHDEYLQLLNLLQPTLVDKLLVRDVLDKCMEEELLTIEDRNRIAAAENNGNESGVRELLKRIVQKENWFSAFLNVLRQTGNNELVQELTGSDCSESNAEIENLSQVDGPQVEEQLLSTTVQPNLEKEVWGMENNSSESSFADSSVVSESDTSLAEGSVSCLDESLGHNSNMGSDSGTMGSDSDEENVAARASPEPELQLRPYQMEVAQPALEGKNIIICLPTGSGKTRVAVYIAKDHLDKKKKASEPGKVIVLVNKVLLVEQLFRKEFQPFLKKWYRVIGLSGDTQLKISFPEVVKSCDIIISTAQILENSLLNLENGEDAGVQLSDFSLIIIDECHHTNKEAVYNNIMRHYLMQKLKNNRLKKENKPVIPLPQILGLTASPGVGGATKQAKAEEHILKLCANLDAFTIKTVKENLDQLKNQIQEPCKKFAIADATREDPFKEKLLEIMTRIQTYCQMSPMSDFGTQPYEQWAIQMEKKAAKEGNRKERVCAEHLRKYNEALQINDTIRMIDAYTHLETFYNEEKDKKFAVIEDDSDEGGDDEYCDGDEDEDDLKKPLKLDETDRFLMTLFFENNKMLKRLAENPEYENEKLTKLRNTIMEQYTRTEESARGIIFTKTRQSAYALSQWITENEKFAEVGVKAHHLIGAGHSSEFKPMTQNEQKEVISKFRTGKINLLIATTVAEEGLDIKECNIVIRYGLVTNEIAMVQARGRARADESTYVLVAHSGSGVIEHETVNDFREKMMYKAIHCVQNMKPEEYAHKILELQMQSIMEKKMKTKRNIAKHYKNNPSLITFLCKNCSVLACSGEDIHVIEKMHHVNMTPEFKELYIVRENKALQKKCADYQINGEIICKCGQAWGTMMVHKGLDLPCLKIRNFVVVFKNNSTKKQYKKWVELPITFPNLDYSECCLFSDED
As to the kind of experiment: co-IP; 293T cells co-transfected, 24 h, untreated or treated with CCCP (10 uM) for 12 h; lysis in 50 mM Tris-HCl pH 7.6, 150 mM NaCl, 0.5% Triton-X-100; anti-Flag agarose at 4 C overnight, washed four times with RIPA buffer; immunoblot. (In general: In western blotting, separated proteins are transferred to a membrane and probed.)

The target of the next test is T2, Flag-RIG-I (UniProt O95786).
T2 sequence: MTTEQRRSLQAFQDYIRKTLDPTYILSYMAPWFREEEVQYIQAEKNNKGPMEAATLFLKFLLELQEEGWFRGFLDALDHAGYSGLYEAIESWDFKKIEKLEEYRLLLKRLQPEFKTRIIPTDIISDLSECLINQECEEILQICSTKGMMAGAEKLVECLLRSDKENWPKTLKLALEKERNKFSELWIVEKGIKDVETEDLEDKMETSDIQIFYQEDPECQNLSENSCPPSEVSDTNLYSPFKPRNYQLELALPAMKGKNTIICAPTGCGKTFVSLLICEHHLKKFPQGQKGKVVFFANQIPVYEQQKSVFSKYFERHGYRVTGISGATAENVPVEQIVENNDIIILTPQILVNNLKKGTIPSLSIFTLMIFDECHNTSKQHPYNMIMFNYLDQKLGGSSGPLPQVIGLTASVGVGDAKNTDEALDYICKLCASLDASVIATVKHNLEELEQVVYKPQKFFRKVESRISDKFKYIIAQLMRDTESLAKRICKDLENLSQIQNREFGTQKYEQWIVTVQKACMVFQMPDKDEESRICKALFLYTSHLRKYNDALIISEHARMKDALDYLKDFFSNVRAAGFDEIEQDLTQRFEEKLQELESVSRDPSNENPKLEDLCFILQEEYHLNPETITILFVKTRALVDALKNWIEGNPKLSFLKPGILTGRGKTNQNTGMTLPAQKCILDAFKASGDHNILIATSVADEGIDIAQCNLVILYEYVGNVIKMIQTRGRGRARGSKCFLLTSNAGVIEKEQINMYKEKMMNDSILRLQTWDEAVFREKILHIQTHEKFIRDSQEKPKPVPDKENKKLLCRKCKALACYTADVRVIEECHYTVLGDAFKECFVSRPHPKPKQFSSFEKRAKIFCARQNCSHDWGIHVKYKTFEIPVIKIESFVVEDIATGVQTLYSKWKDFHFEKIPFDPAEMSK
The test is described as above.

Test [1] addresses T3, endogenous MDA5 (human (endogenous in HEK293)) (UniProt Q9BYX4).
T3 sequence: T1 sequence
As to the kind of experiment: co-IP; endogenous proteins; HEK293 cells stimulated with SeV for 10 h, whole cell lysates immunoprecipitated with indicated antibodies; immunoblot.

Test [2] concerns the target T4, endogenous RIG-I (human (endogenous in HEK293)) (UniProt O95786).
T4 sequence: T2 sequence
The test is described as above.

Take “Myc-PINK1 (from UniProt Q9BXM7 78-581) (enzyme)”: the binding result with Flag-MDA5 and with Flag-RIG-I was “no binding” throughout.

As for “Myc-Parkin (from UniProt O60260 1-465) (enzyme)”, the binding entry with Flag-MDA5 and with Flag-RIG-I was “binds” each time.

Regarding “endogenous Parkin (from UniProt O60260 1-465) (enzyme)”, the binding result in test [1] and in test [2] was “binds” throughout.

Values taken from article PMC7492610.
